From PMC4892432
Residue numbers refer to the chain shown, from its start. No constants are given. Whether binding was seen depends on the method and setting. Some results given as binding are weak or reduced against the parent protein; the word gives no strength.

Amino acid sequences for entries named in this document (tags omitted). Residues count along the entry.
UniProt P09326, residues 27-220: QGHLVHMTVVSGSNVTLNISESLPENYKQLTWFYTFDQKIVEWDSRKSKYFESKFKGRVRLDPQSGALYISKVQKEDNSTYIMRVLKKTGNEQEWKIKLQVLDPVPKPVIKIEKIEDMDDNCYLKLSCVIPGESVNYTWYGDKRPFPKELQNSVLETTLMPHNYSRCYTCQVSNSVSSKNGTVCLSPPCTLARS

How the values were obtained:
[1] = biological target: T1, 2B4 on NK cells (endogenous) (human (endogenous in NK92.C1, NKL and primary NK cells)) (UniProt Q9BZW8); assay: flow cytometry on cells; masking of 2B4 on NK cells for soluble CD48-ILZ by CD48 on the same cell, lifted by PI-PLC treatment
T1 sequence: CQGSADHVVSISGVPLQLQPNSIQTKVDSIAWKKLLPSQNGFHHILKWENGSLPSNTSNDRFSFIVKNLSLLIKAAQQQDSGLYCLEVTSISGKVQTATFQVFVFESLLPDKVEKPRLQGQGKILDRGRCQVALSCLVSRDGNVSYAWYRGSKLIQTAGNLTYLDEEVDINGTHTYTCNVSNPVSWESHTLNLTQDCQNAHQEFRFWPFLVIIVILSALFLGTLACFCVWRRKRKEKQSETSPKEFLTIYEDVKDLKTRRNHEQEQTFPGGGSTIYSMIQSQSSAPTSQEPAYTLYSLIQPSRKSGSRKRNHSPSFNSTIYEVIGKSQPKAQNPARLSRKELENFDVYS

[2] = biological target: T1, 2B4 on NK cells (endogenous) (human (endogenous in NK92.C1, NKL and primary NK cells)); assay: condition: only untreated NK cells that carry CD48 on the same cell (no PI-PLC); flow cytometry on cells; staining of untreated NK92.C1 and primary NK cells, which also express CD48, with soluble CD48-ILZ; NKp30-ILZ as staining control; only the binder purified
[3] = biological target: T2, 2B4 mutant K68A/E70A (human) (UniProt Q9BZW8); assay: flow cytometry on cells; binding of sCD48 to the 2B4 mutant K68A/E70A (electronic supplementary figure S1); cells and conditions not given; only the binder purified
T2 sequence: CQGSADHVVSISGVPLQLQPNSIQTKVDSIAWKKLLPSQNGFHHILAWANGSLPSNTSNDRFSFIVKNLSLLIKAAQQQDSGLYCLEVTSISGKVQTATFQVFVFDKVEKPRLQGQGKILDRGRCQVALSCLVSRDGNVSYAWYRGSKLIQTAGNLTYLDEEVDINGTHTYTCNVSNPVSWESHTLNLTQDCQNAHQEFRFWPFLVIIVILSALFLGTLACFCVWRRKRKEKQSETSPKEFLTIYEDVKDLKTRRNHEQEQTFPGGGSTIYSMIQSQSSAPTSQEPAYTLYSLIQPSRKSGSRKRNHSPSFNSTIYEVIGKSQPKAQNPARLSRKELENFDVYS

[4] = biological target: T1, 2B4 on NK cells (endogenous) (human (endogenous in NK92.C1, NKL and primary NK cells)); assay: flow cytometry on cells; staining of NK92.C1 and primary NK cells with soluble CD48-ILZ after 1 U/ml PI-PLC for 1 h at 37°C (removes CD48 and all other GPI-anchored proteins); NKp30-ILZ as negative control; only the binder purified
[5] = biological target: T3, 2B4 wt on stably transfected HEK293T cells (human) (UniProt Q9BZW8); assay: flow cytometry on cells; staining of stably transfected HEK293T cells (2B4 wt, 2B4KHT, 2B4 βs) with soluble CD48-ILZ fusion protein; control ILZ fusion protein as staining control; only the binder purified
T3 sequence: T2 sequence with A47K, A49E

[6] = biological target: T4, 2B4 βs (2B4 with the CD4 β-strand motif in place of the linker) on HEK293T cells (human) (UniProt Q9BZW8); assay: as above
T4 sequence: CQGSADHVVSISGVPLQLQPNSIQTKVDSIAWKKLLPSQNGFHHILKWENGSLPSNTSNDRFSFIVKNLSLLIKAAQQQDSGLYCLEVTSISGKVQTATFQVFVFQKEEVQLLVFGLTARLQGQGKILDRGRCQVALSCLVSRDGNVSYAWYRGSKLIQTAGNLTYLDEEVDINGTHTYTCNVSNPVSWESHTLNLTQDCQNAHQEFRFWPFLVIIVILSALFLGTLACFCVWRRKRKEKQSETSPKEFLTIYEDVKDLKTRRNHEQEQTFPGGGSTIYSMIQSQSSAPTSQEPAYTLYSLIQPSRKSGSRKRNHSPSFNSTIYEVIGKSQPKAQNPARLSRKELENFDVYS

[7] = biological target: T5, 2B4KHT (2B4 K54A, H65A, T110A) on HEK293T cells (human) (UniProt Q9BZW8); assay: as above
T5 sequence: T2 sequence with K33A, H44A, A47K, A49E, T89A

| binding [1] | binding [2] | binding [3] | binding [4] | binding [5] | binding [6] | binding [7] | Substance |
| --- | --- | --- | --- | --- | --- | --- | --- |
| binds |  |  |  |  |  |  | CD48 on NK cells (endogenous) (from UniProt P09326 27-220) (ligand) |
|  | no binding | binds | binds | binds | binds | no binding | soluble CD48-ILZ fusion protein (from UniProt P09326 27-220) (ligand) |
